Measured values reported in the supplement of paper PMC10441789.
This is one part of the list. Antibody binding of pooled human sera (four to six donors per pool; dilution not stated) to peptides of the Trypanosoma cruzi antigen TSSA on microarrays. Quantile-normalised fluorescence in arbitrary units, mean of duplicate arrays; higher = more binding. No active / inactive call. The uninfected pools are read here as the healthy donors of the same country. The strongest signals lie near the top of the scale (about 60,000).

Legend:
Experiment in all cases: antibody binding signal (normalised fluorescence) (arbitrary fluorescence units); higher = stronger serum antibody binding to peptide
[1] = test system: pooled sera of chronic Chagas disease patients, Argentina
Protocol: (§1)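 Microarray of 15-residue peptides over residues 30-55 of Trypanosoma cruzi TSSAII, each with 1 to 10 substitutions at naturally variable positions, probed with one serum pool per country.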

[2] = test system: pooled sera of chronic Chagas disease patients, Bolivia
Protocol: as §1

[3] = test system: pooled sera of chronic Chagas disease patients, Brazil
Protocol: as §1

[4] = test system: pooled sera of chronic Chagas disease patients, Colombia
Protocol: as §1

[5] = test system: pooled sera of chronic Chagas disease patients, Mexico
Protocol: as §1

[6] = test system: pooled sera of chronic Chagas disease patients, USA
Protocol: as §1

[7] = test system: pooled sera of uninfected people, Argentina
Protocol: as §1

[8] = test system: pooled sera of uninfected people, Bolivia
Protocol: as §1

[9] = test system: pooled sera of uninfected people, Brazil
Protocol: as §1

[10] = test system: pooled sera of uninfected people, Colombia
Protocol: as §1

[11] = test system: pooled sera of uninfected people, Mexico
Protocol: as §1

[12] = test system: pooled sera of uninfected people, USA
Protocol: as §1

Sequence	antibody binding signal [1]	antibody binding signal [2]	antibody binding signal [3]	antibody binding signal [4]	antibody binding signal [5]	antibody binding signal [6]	antibody binding signal [7]	antibody binding signal [8]	antibody binding signal [9]	antibody binding signal [10]	antibody binding signal [11]	antibody binding signal [12]
GTENKTAAGGTPSPS	30900	441	491	5440	786	1770	296	412	1220	531	1800	177
STPPSGTEKKAATGE	35400	28200	26700	287	21000	3080	995	310	522	321	138	131
DKKTATGGTPSQPGA	575	477	613	4110	480	1470	526	108	314	707	938	154
GTENKAATGGTPSPP	39200	1350	718	980	1430	734	196	355	284	414	195	89.3
NKAAAGEAPSQPGAS	7380	32600	44900	225	206	11400	543	1220	321	432	307	1050
GKDKKAAAGGTPSPP	340	169	152	1950	518	1130	112	72.5	520	137	80.8	96.1
GKEKKPATGGAPSPS	6600	732	1130	3520	3940	4000	221	340	96.1	90.8	86.6	289
GTDNKAAAGETPSPP	245	163	31300	211	361	1130	146	649	1190	110	219	589
PSGTEKKAAAGETPS	15700	2880	6110	3970	4400	6230	568	477	221	1070	342	431
GKEKKPAAGEAPSQS	4880	1490	5180	2900	3830	11800	98.8	83.6	100	75.9	76.5	244
GTDKKAATGEAPSQP	23400	22700	42200	2060	659	26300	414	227	203	603	269	176
PSGKENKPAAGGTPS	8560	1540	11700	10100	11800	10100	9290	3400	249	302	343	193
GKDKKAATGGTPSQS	422	235	197	625	1190	813	211	92.1	182	157	138	92.5
PSGKDNKPAAGGAPS	4310	1340	5180	6200	6790	4830	945	769	139	130	159	149
NKTATGGTPSPSGAS	627	991	4600	650	723	775	755	953	472	968	246	1400
SGTEKKPAAGGTPSQ	2850	330	7420	8710	2410	2450	184	1010	3130	157	445	1340
NKAAAGGAPSPSGAS	413	261	3210	4560	619	980	886	929	302	369	196	1110
GKEKKTATGEAPSQS	10300	7630	9950	4620	5400	15900	160	85.2	364	81.1	87.7	88.7
TPPSGKDNKAATGEA	3260	6060	3650	326	14000	4950	208	682	258	245	102	99.8
SGTDKKAATGEAPSP	20400	36600	28800	1950	360	25000	413	131	234	614	579	175
